Data: the supplement of paper PMC8728848
Some of the results follow.

Assays:
Test in all cases: glycan array binding signal (z-score within array); higher = stronger binding
Settings in all cases: glycan notation: IUPAC condensed, linker removed; mutation: K176L
[1] = target: GlcNAc(b1-3)Gal(b1-4)GlcNAc(b1-3)Gal(b1-4)GlcNAc
Procedure, shortened: (§1)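 The binding signal is a Z-score computed within each array and averaged over linkers. Arrays of the same protein sequence at different concentrations or buffers were also averaged together. Data originate from 3228 arrays in the Consortium for Functional Glycomics database, kept only where the protein sequence was available.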

[2] = target: GlcNAc(b1-3)GalNAc
Procedure, shortened: as §1

[3] = target: GlcNAc(b1-3)Man
Procedure, shortened: as §1

[4] = target: GlcNAc(b1-3)[GlcNAc(b1-4)][GlcNAc(b1-6)]GlcNAc
Procedure, shortened: as §1

[5] = target: GlcNAc(b1-3)[GlcNAc(b1-6)]Gal(b1-4)GlcNAc
Procedure, shortened: as §1

[6] = target: GlcNAc(b1-3)[GlcNAc(b1-6)]GalNAc
Procedure, shortened: as §1

[7] = target: GlcNAc(b1-4)Gal(b1-4)GlcNAc
Procedure, shortened: as §1

[8] = target: GlcNAc(b1-4)GlcNAc
Procedure, shortened: as §1

[9] = target: GlcNAc(b1-4)GlcNAc(b1-4)GlcNAc
Procedure, shortened: as §1

[10] = target: GlcNAc(b1-4)GlcNAc(b1-4)GlcNAc(b1-4)GlcNAc(b1-4)GlcNAc
Procedure, shortened: as §1

[11] = target: GlcNAc(b1-4)GlcNAc(b1-4)GlcNAc(b1-4)GlcNAc(b1-4)GlcNAc(b1-4)GlcNAc
Procedure, shortened: as §1

[12] = target: GlcNAc(b1-4)[GlcNAc(b1-6)]GalNAc
Procedure, shortened: as §1

[13] = target: GlcNAc(b1-6)Gal(b1-4)GlcNAc
Procedure, shortened: as §1

[14] = target: GlcNAc(b1-6)GalNAc
Procedure, shortened: as §1

[15] = target: GlcNAc3Prop(b1-4)GlcNAc
Procedure, shortened: as §1

[16] = target: GlcNAc6S(b1-3)Gal(b1-4)GlcNAc
Procedure, shortened: as §1

[17] = target: Kdn(a2-3)Gal(b1-3)GalNAc
Procedure, shortened: as §1

[18] = target: Kdn(a2-3)Gal(b1-3)GlcNAc
Procedure, shortened: as §1

[19] = target: Kdn(a2-3)Gal(b1-4)Glc
Procedure, shortened: as §1

[20] = target: Kdn(a2-3)Gal(b1-4)GlcNAc
Procedure, shortened: as §1

[21] = target: Kdn(a2-3)Gal(b1-4)[Fuc(a1-3)]GlcNAc
Procedure, shortened: as §1

[22] = target: Kdn(a2-6)Gal(b1-4)GlcNAc
Procedure, shortened: as §1

[23] = target: Man(a1-2)Man(a1-2)Man(a1-3)Man
Procedure, shortened: as §1

[24] = target: Man(a1-2)Man(a1-2)Man(a1-6)[Man(a1-3)]Man
Procedure, shortened: as §1

[25] = target: Man(a1-2)Man(a1-3)Man
Procedure, shortened: as §1

[26] = target: Man(a1-2)Man(a1-3)[Man(a1-2)Man(a1-6)]Man
Procedure, shortened: as §1

[27] = target: Man(a1-2)Man(a1-3)[Man(a1-2)Man(a1-6)]Man(a1-6)[Man(a1-2)Man(a1-2)Man(a1-3)]Man
Procedure, shortened: as §1

[28] = target: Man(a1-2)Man(a1-3)[Man(a1-2)Man(a1-6)]Man(a1-6)[Man(a1-2)Man(a1-2)Man(a1-3)]Man(b1-4)GlcNAc(b1-4)GlcNAc
Procedure, shortened: as §1

[29] = target: Man(a1-2)Man(a1-3)[Man(a1-6)]Man(a1-6)[Man(a1-2)Man(a1-3)]Man(b1-4)GlcNAc(b1-4)GlcNAc
Procedure, shortened: as §1

[30] = target: Man(a1-2)Man(a1-6)[Man(a1-3)]Man(a1-6)[Man(a1-2)Man(a1-2)Man(a1-3)]Man
Procedure, shortened: as §1

[31] = target: Man(a1-2)Man(a1-6)[Man(a1-3)]Man(a1-6)[Man(a1-2)Man(a1-2)Man(a1-3)]Man(b1-4)GlcNAc(b1-4)GlcNAc
Procedure, shortened: as §1

[32] = target: Man(a1-3)[Man(a1-6)]Man
Procedure, shortened: as §1

[33] = target: Man(a1-3)[Man(a1-6)]Man(a1-6)[Man(a1-2)Man(a1-3)]Man(b1-4)GlcNAc(b1-4)GlcNAc
Procedure, shortened: as §1

[34] = target: Man(a1-3)[Man(a1-6)]Man(a1-6)[Man(a1-3)]Man
Procedure, shortened: as §1

[35] = target: Man(a1-3)[Man(a1-6)]Man(a1-6)[Man(a1-3)]Man(b1-4)GlcNAc(b1-4)GlcNAc
Procedure, shortened: as §1

[36] = target: Man(a1-3)[Man(a1-6)]Man(b1-4)GlcNAc(b1-4)GlcNAc
Procedure, shortened: as §1

[37] = target: Man(a1-6)Man
Procedure, shortened: as §1

B1: Gal 3 (Homo sapiens), P17931 (protein)
chain: MADNFSLHDALSGSGNPNPQGWPGAWGNQPAGAGGYPGASYPGAYPGQAPPGAYPGQAPPGAYHGAPGAYPGAPAPGVYPGPPSGPGAYPSSGQPSAPGAYPATGPYGAPAGPLIVPYNLPLPGGVVPRMLITILGTVKPNANILDFQRGNDVAFHFNPRFNENNRRVIVCNTLLDNNWGREERQSVFPFESGKPFKIQVLVEPDHFKVAVNDAHLLQYNHRVKKLNEISKLGISGDIDLTSASYTMI
[1]
  glycan array binding signal (z-score): 4.87
[2]
  glycan array binding signal (z-score): -0.27
[3]
  glycan array binding signal (z-score): -0.265
[4]
  glycan array binding signal (z-score): -0.264
[5]
  glycan array binding signal (z-score): -0.271
[6]
  glycan array binding signal (z-score): -0.271
[7]
  glycan array binding signal (z-score): -0.261
[8]
  glycan array binding signal (z-score): -0.264
[9]
  glycan array binding signal (z-score): -0.271
[10]
  glycan array binding signal (z-score): -0.269
[11]
  glycan array binding signal (z-score): -0.272
[12]
  glycan array binding signal (z-score): -0.273
[13]
  glycan array binding signal (z-score): -0.269
[14]
  glycan array binding signal (z-score): -0.268
[15]
  glycan array binding signal (z-score): -0.272
[16]
  glycan array binding signal (z-score): -0.267
[17]
  glycan array binding signal (z-score): -0.264
[18]
  glycan array binding signal (z-score): -0.255
[19]
  glycan array binding signal (z-score): -0.262
[20]
  glycan array binding signal (z-score): -0.268
[21]
  glycan array binding signal (z-score): -0.27
[22]
  glycan array binding signal (z-score): -0.266
[23]
  glycan array binding signal (z-score): -0.26
[24]
  glycan array binding signal (z-score): -0.268
[25]
  glycan array binding signal (z-score): -0.268
[26]
  glycan array binding signal (z-score): -0.27
[27]
  glycan array binding signal (z-score): -0.269
[28]
  glycan array binding signal (z-score): -0.263
[29]
  glycan array binding signal (z-score): -0.27
[30]
  glycan array binding signal (z-score): -0.269
[31]
  glycan array binding signal (z-score): -0.263
[32]
  glycan array binding signal (z-score): -0.265
[33]
  glycan array binding signal (z-score): -0.267
[34]
  glycan array binding signal (z-score): -0.269
[35]
  glycan array binding signal (z-score): -0.266
[36]
  glycan array binding signal (z-score): -0.271
[37]
  glycan array binding signal (z-score): -0.264
